Measurements taken from PubChem BioAssay AID2073 (Sanford-Burnham Center for Chemical Genomics, 2009).
The list shows a part of the results. Further columns of the screen follow, without active or inactive calls.

biological target: Voltage-dependent N-type calcium channel subunit alpha-1B (Homo sapiens) (UniProt Q00975); experiment: disruptors of CaV2.2 binding to Mint1 – biochemical, HTRF (AID 2073); settings: HTRF protein-protein interaction, Mint1-CaV2.2; measured here: average of repeat tests; at 20 µM; stronger effect = higher value
Sequence of UniProt Q00975 (Q00975 whole entry, looked up): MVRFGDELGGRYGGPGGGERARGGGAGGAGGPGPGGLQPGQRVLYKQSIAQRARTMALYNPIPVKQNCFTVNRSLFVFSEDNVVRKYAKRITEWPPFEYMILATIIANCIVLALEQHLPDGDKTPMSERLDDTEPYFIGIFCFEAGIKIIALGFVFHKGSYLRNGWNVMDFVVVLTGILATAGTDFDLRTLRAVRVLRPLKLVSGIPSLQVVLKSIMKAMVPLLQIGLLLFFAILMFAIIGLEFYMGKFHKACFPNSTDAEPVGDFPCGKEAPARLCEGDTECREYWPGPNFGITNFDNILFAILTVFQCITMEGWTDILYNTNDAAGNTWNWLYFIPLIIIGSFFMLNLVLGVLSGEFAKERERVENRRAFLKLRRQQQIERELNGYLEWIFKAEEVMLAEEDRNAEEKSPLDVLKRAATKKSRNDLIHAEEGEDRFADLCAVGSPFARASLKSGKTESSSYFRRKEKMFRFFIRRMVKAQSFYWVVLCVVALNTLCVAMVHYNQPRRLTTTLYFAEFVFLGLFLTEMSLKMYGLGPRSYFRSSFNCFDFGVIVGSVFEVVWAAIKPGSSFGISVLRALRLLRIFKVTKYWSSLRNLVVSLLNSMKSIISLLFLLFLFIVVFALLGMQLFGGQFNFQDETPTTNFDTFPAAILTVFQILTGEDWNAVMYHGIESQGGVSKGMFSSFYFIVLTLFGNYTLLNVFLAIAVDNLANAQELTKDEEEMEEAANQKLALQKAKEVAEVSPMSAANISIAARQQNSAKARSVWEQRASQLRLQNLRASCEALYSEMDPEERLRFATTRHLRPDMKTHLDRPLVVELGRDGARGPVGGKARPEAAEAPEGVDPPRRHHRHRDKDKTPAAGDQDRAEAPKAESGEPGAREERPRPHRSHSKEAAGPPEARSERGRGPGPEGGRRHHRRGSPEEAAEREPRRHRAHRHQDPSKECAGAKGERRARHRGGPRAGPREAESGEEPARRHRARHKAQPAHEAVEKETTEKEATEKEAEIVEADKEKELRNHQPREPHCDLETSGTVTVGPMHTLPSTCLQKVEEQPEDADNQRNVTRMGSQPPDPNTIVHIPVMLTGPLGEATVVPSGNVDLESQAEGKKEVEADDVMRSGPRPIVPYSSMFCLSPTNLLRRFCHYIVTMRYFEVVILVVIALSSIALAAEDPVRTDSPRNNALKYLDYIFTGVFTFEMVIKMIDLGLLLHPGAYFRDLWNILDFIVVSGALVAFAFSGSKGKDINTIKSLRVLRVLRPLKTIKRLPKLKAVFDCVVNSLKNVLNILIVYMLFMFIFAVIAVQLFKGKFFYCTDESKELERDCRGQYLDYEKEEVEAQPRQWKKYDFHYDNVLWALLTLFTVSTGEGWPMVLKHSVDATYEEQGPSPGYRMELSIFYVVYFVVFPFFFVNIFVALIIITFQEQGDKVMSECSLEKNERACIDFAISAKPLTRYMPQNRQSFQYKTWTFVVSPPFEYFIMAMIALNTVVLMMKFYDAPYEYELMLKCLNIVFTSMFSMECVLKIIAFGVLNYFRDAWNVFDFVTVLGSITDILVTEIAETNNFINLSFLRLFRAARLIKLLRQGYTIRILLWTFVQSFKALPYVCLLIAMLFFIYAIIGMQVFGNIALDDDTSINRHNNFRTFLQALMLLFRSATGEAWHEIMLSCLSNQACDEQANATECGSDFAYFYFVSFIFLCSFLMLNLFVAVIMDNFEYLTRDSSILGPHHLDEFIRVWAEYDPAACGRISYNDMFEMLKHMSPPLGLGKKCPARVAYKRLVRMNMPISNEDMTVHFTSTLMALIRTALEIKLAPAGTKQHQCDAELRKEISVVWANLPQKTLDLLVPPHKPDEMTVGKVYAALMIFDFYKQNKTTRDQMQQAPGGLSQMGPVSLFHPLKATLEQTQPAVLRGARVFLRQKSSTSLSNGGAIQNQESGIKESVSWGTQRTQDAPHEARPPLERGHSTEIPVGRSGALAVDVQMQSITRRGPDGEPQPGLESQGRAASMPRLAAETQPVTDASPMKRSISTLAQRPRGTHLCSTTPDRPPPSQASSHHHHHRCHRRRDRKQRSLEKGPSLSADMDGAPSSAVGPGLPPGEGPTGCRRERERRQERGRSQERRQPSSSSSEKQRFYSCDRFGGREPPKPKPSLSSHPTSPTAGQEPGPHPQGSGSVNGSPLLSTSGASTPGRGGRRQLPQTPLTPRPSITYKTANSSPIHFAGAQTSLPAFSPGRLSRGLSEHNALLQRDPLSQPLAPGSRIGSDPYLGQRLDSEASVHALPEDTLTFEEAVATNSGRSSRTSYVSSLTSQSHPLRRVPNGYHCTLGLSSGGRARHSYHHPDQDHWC

Structure (SMILES)	inhibition [%]
N#CC(C#N)=NNc1ccc(S(N)(=O)=O)cc1	76.5
CC1=C(C(=O)O)N2C(=O)C(NC(=O)CCCC(=O)O)C2SC1 (stereo unspecified)	86.6
COc1ccc(N2C(=O)NC(=O)/C(=C\c3ccc([N+](=O)[O-])s3)C2=O)cc1	68.3
Nc1cc2nc3ccccc3nc2cc1N	72.5
COc1cccc(N2C(=O)NC(=O)/C(=C\c3ccc([N+](=O)[O-])s3)C2=O)c1	69.3
CN(C)c1nc(-c2ccccc2)[n+](C)s1	74.6
O=C1NC(=O)C(=Cc2ccc(SC3CCCCC3)o2)C(=O)N1	46.5
O=C(O)CCn1cc(C=C2C(=O)NC(=S)NC2=O)c(-c2cccc(Cl)c2)n1	62.8
O=C1NC(=S)N(c2ccc(F)cc2)C(=O)/C1=C/c1ccco1	92.3
COc1cc(/C=C/c2nc3ccccc3c(=O)n2-c2ccccc2O)ccc1O	60
O=C1NC(=O)N(CCc2ccc(F)cc2)C(=O)/C1=C/c1ccco1	60.3
O=C(O)CCn1cc(C=C2C(=O)NC(=S)NC2=O)c(-c2ccccc2)n1	66
O=C(O)CCn1cc(C=C2C(=O)NC(=S)NC2=O)c(-c2cc3ccccc3oc2=O)n1	66.7
O=C(c1ccc2nc(-c3ccco3)c(-c3ccco3)nc2c1)N1CCC2(CC1)OCCO2	48.5
O=C1NC(=O)N(c2ccccc2)C(=O)/C1=C/c1ccc(Sc2ccccc2)o1	68.9
CC1=C(C(=O)O)N2C(=O)[C@@H](NC(=O)CCCC(=O)O)[C@H]2SC1	78
Cc1ccc2c(c1)=C/C(=C\c1c(O)[nH]c(=S)[nH]c1=O)C(=O)N=2	64.2
O=C1NC(=O)N(Cc2ccccc2)C(=O)/C1=C/c1cnn(-c2ccccc2)c1	34
O=C1NC(=O)C(=Cc2ccc(-c3cc(Cl)ccc3[N+](=O)[O-])o2)C(=O)N1	72.8
Cn1c(O)c(/C=C/C=Nc2ccccc2)c(=O)n(C)c1=S	69.2
C=CCOc1ccc(CC2C(=O)N(C)C(=O)N(C)C2=O)cc1	66.2
